Data reported in the supplement of paper PMC11417369.
Some of the results follow.

Tested on: PfHDP1 homeodomain (GST-tagged)
Experiment: gcPBM binding intensity (ln(normalized median fluorescence intensity)); higher = stronger DNA binding
Procedure, shortened: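 Plasmodium falciparum DNA-binding domains carrying a GST tag were expressed in E. coli and applied for 1 h, at about 25 μg on average, to an Agilent 4 × 180k array. The array held primer-extended double-stranded 36-bp intergenic genomic probes together with negative controls, and binding took place in 1× PBS with 1% milk, 0.2 mg/ml BSA, 0.5% salmon testes DNA and 0.03% Triton X-100. An Alexa488 anti-GST antibody detected bound protein, and the array was scanned at 488 nm. Binding intensity is taken as the highest Masliner-normalised natural-log median intensity across replicate spots of either probe orientation.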

| Sequence | gcPBM binding intensity (ln) |
| --- | --- |
| TTCATTTTATTTTAAGTGCATATTTTTATTTTTTTG | 8.02 |
| TAGTATGATAACTTGGGTACATAAATATGGAGTATC [XGTACX_site1296] | 6.81 |
| AGAAAGGATATTATATGTACATATCTTTGTATTTTT [XGTACX_site5040] | 6.52 |
| CATACCCATAAACACACACACATATATACCTATATA [CACACA_site4745] | 6.87 |
| ATCATACCTTTTAATGTACACACATTTCTTTTTTGT [CACACA_site8198] | 7.12 |
| TATATAAATAAAAAAAGTACATTACTTTTTAATTTA [XGTACX_site285] | 5.88 |
| TTTTATTTGACAAGCACACACTTAAATATATATATA [CACACA_site5792] | 8.09 |
| AAACAAAAAATAAAATGTACATTTATTACGATAAGT [XGTACX_site2392] | 7.12 |
| ATGGAATAATCACGTACACACAAGAAAAAAAAAAAT [CACACA_site527] | 6.62 |
| GGATAATATATTAGAACACACATATATATGTAAAAA [CACACA_site185] | 6.91 |
| ATTACAAATACAAACACACAAATGTTTTTCATTCAA [CACACA_site7639] | 6.49 |
| TTTACATATTTATATACACACTTTTGCGTGCGTGGT [CACACA_site6647] | 7.06 |
| AATAAAATATATTCCTGTACATATGATTCTTTTTTT [XGTACX_site7980] | 6.53 |
| ATACATATATATATATGTACATATGTATTTTTTATT [XGTACX_site105] | 6.72 |
| ACTATACAGTTATACACACACATATATCTATAATAT [CACACA_site6283] | 7.32 |
| TAGTATAATATGAACACACACACACCGACAAAAAAA [CACACA_site5151] | 7.19 |
| ATATAATTTATATATTCACACAAGGAATACTTTTAT [CACACA_site5506] | 6.23 |
| AATTGAAAAAGAAATTGTACATTTTATTTTTATTAT [XGTACX_site1973] | 6.18 |
| ATATATATATATATATGTACTTATGTCATCATTAAA [XGTACX_site5316] | 9.37 |

| Sequence | gcPBM binding intensity (ln) |
| --- | --- |
| CATTTAAAATTTGTTTGTACATATATATATATATAT [XGTACX_site6729] | 9.34 |
| TTTTACAATAACAATACACACTATAATATGTAAATA [CACACA_site6772] | 6.57 |
| TATATGTATGTTTGTGTGCACACATAAATATTATAT | 10.5 |
| AATGTACAAATACGTACACACATATATATATATATA [CACACA_site1542] | 9.39 |
| AAATAAAGGAAATGTATATCAACATTAAAATAAGGC [CACACA_negctrl_site441] | 6.92 |
| GTATAAAATATTTTATGTACATAATATATATATATA [XGTACX_site2489] | 8.9 |
| ATATACATAATTTGGAGTACAATATCATATAAATAT [XGTACX_site6334] | 6.4 |
| AGTAAATTTGATGGTCGTACAAAAAAAAAGTAGGAC [XGTACX_site2600] | 6.81 |
| ACGAAGTATATGAATACACACATATTTTTAATGAAA [CACACA_site4070] | 6.12 |
| ATATATATATATATTGCACACACAATTATTATTATT [CACACA_site8721] | 10.6 |
| ATATATATATATATATGTACATATTTTTGTTTGATG [XGTACX_site51] | 9.27 |
| CAGATATTCATATAAACACACATACAAATTATGTAT [CACACA_site4258] | 6.49 |
| TACAATCTAAAATACACACGCACACCGAAAAAAAAA [CACACA_site3520] | 6.95 |
| TATATATATAATTAAGCATGCTAGAAACCTTTGAAA [TGCATGCA_site489] | 6.66 |
| TGAAGAATATTTTTCACACATATATATATATATATA [CACACA_site6080] | 9.36 |
| TAACATATAAGTGTGTGTACGTACTGCGTATAATAT [XGTACX_site8597] | 7.15 |
| TGAATATATAAATATGCACACTTCTATTATAAATAA [CACACA_site5796] | 8.8 |
| GACAAACAATATGAATGTACATAAAAATATAACTAA [XGTACX_site1167] | 6.77 |
| TTGTTCTTATTTCATTTTTATATGATATTTCATTAT [CACACA_negctrl_site1619] | 6.79 |

| Sequence | gcPBM binding intensity (ln) |
| --- | --- |
| AATATTTATTTAATTTCACACAGGTCTTTTTTTTTT [CACACA_site5188] | 6.16 |
| TATTTATTGTGACACTTTTATTATTTTATGATAAAA [CACACA_negctrl_site37] | 6.6 |
| GTGTTCTTGTTATACACACACATATATATATATATA [CACACA_site1032] | 9.45 |
| TGAAAGAAGCATAAATGTACACACATATTTATATAT [XGTACX_site2645] | 6.55 |
| GAGAAAAGGAAATAACGTACACATATGCATATCCAA [XGTACX_site5858] | 6.96 |
| GTAATATTTTATAGTAGTACATATTTTTATTATTTT [XGTACX_site3333] | 6.15 |
| GAGAGGTCAGTTCACAGTACCCAGAAACTCTACGAG [XGTACX_site2559] | 5.91 |
| AAAAAAATTAATATGTCAGCACATATATACATACAT [GTGCAC_negctrl_site110] | 6.17 |
| TATATATATAAAAAAGCACACATACATACATACATA [CACACA_site8196] | 7.15 |
| TTTTATCGTTTTTTTTTTTTTTTTTTTTTTTTTTTT [CACACA_negctrl_site1309] | 7.33 |
| TTTGTTCATATGAAATGTACAAAAAAAAAAAAAAAA [XGTACX_site8849] | 6.12 |
| CCTTATAAATACTGCACACATAAAATATATATTATC [CACACA_site2806] | 9.18 |
| ATGTAGAAGTAATGCACACATATGTATTTATATATA [CACACA_site5391] | 10.9 |
| TTTTAACATATAAGTACACACATATAATCAATCATA [CACACA_site2325] | 6.5 |
| ATAAACGTTTTTGAAAGTACATATCATTCATTTGAT [XGTACX_site200] | 6.53 |
| ATATAATATTTATATGTACACACCTTAATCCTTAAA [CACACA_site3555] | 6.68 |
| AAAAAAAAGAAAAAAAAAAAAAAAAAAAAAAAAAAA [CACACA_negctrl_site489] | 5.92 |
| CGCACACGCAGACACACACACACATATAAATAAATA [CACACA_site7101] | 6.87 |
| ATATATATATATAAATGTACAGGCTTATCTCTTATT [XGTACX_site1828] | 9.02 |
